Read counts are not given, so values of variants with three or more changes are uncertain.
B1: OR4K15 (parent)
chain: GUUAACGGUCAUAGGCCAUGGAAACUAGGAGCACCAUUUCGCUGCCAGUGAAGAAAUGAACAAAGAAAAUCUGGGCCAGGCAGGCAUCAAAAGAAAUAGUCUUGCGCUCAACCAGAAAGUCUGUAAUCAUUUUAAGGGUA

Variants of: B1
Assay: self-cleavage, relative activity (ratio to wild type); higher = more cleavage; in vitro, sequencing; the parent is a self-cleaving ribozyme

| Variant | self-cleavage |
| --- | --- |
| C25A U43A A116G | 1.07 |
| A22G A30G U43C A54G A86U A90G A94G U122C | 0.96 |
| U9C A23G A60G A92G | 0.55 |
| U43A U100C U132C | 2.54 |
| A30G A63U A92G | 1.25 |
| A64G U97C U108C A134G | 0 |
| A23G U87C U103C U133A | 0.12 |
| A24G U49C A51U A55G A56G | 0.89 |
| U19C U49A A66G A116G | 0.08 |
| U19C A22G A66U | 2.37 |
| A51U A94G U102C | 1.97 |
| U3C U43A A68G A91G | 1.5 |
| A33G A56G U72G A82G | 0.13 |
| A5U G74A G106A U133C | 0.05 |
| A23G U87C A110U A129U | 0.4 |
| A51U A96G C112G A140G | 0.01 |
| A55G C88U A110G U120A U122C | 0.09 |
| U3C A59G A78U U131C | 0.64 |
| A36G A47C A55G | 0.96 |
| A55G A78G A91G | 0.05 |
| A47G A68G A90G | 0.95 |
| G8U A60G A126G A135G | 0.85 |
| A60G U122C U132C | 0.78 |
| A47U U70C A125G | 0.08 |

| Variant | self-cleavage |
| --- | --- |
| A23G A52U A56G | 1.04 |
| U19C G73A A110G | 0.11 |
| A33C A78G C101U A118G U127C | 0.01 |
| U38C A92G U102C U122C | 1.83 |
| U9G A22G G75A C76U A125G | 0.03 |
| U2C A5G G14A U39A | 0.8 |
| A117G A126G U132C | 2.02 |
| U26A U39C U102C U108C | 0 |
| U2C A23G A52G A66G A89G | 1.31 |
| A11G A54G U108A | 0.04 |
| U38C A95G U108C | 0.02 |
| U19C A111G A116G | 0.01 |
| A23G A55G A60G | 0.82 |
| A30G A33U A62G | 1.6 |
| G8A A30G A56G | 1.06 |
| U57C A86G A118G | 0.83 |
| G15A A52G A66G | 1.11 |
| A94G C107U U130C | 0.02 |
| A68G A92U A135U | 2.39 |
| C16G A67G A96G U103C | 0.4 |
| U43C A59U A91G | 1.19 |
| A63G A67U A90G | 0.89 |
| A59G A95G A125G | 0.82 |
| A62G A82G A89G U120C A129G | 0.15 |

| Variant | self-cleavage |
| --- | --- |
| A30G A59G A69C A91G U102A | 0.33 |
| A54U A60G A89U | 1.76 |
| U49A U108C A114U | 0.02 |
| C6U A30G A63G U87C A116G | 1.52 |
| C46U A95C A98G A116U U120C | 0.04 |
| A47U A96G A140G | 1.37 |
| A30G G123A G136A | 1.52 |
| A66G U72A A89U | 0.35 |
| C32A U37C A92G A116U | 0.4 |
| A22G A24G U49C C105G A118U | 0.01 |
| A47U A68U A116G | 1.01 |
| U38C A118G U139C | 1.01 |
| C42U U43C A56G C121U | 1.78 |
| U57C A95G A114G | 0.41 |
| A24U C71U A96G | 0.14 |
| A52G A55G A90G A91G A110G | 0.07 |
| A11G A62G U72A G136A | 0.19 |
| U9G A59G A90U U122C | 0.56 |
| U49C U124C U139C | 0.56 |
| A51G U120C U122C | 1.04 |
| A24G C46U U108C | 0.03 |
| A18C A24C A54U A60G U103A | 0.71 |
| A82G U87C A116G A129G U130C | 0.04 |
| A18G A22G C101G G137A | 0.21 |

| Variant | self-cleavage |
| --- | --- |
| U43C A54G A60G A89G | 0.87 |
| U39C A67G G119A | 2.36 |
| U70C U102C A117C | 0.51 |
| A22G A52G A78G A114U | 0.14 |
| G7A A54G A91G | 1.5 |
| A23G A30G U49C A54G A118G | 0.64 |
| A52G A86G A129U | 1.02 |
| G7A A18U U19A U102C A114U | 0.12 |
| A22G A54G A69U | 1.74 |
| U70C U87C C101U | 0.05 |
| A13G A23G A52G A116G | 0.63 |
| A56G G73A U122C | 0.1 |
| U2C A22G A54G U72A | 0.53 |
| A18U A36U U102C A114G A116U | 0.06 |
| U2C U9A A24G A33G A114G | 0.05 |
| A67G A82U U132C | 0.27 |
| A30G A68G A89G A111G | 0.01 |
| A22G A55G A78U A96G | 0.14 |
| A27G U37C U43A A116G | 1.24 |
| A78U A96G A111G | 0.02 |
| U2C C6U A64C U87C A94G | 1 |
| A68G U87A U127A | 1.78 |
| U57C U108C A126G | 0.01 |
| A54G A64G A66G A86U U102A U103C | 0.08 |

| Variant | self-cleavage |
| --- | --- |
| A22G A54G U131C | 0.87 |
| A33U A59G A60G A69G A86G | 0.71 |
| A69G A91G U103C U139C | 0.12 |
| A47U A67G A92G A126G | 0.21 |
| A4G G7U A67G U103C U124C A135U | 0.43 |
| A18G A59G G75A | 0.15 |
| A11G A18U A86U U131C | 1.34 |
| A5U U9C A24G A33G A86G | 1.44 |
| C6U A51G A98C | 1.61 |
| U19C A86G U100C | 2.7 |
| C6U A118U U131C | 0 |
| U12A A62U A67G | 1.35 |
| A59G G104C U131C | 0.02 |
| U100C A117G U132C | 1.74 |
| A55G A89G A90G A98G U122G A125G | 0.18 |
| A94U U103A A129G | 0.32 |
| U37C A92G U131C | 1.18 |
| A11C A22G A60G U100C | 1.3 |
| A51G A78G A95G U102A | 0.14 |
| U3C A78G U108A | 0.03 |
| A5G A36U A47U A86G | 0.29 |
| U12C U37A U57C | 1.37 |
| A30G A33U U49C U87A | 1.26 |
| A27G U39C A52G | 0.95 |

| Variant | self-cleavage |
| --- | --- |
| U9A A66U A111G A125G A134G | 0 |
| G58U A66G A95G U102A A117U | 0 |
| U3C A60U A91U | 1.55 |
| A60G A66G A92U | 1.26 |
| A11C G48A C113U | 0.08 |
| A22G A82U U130C A135G | 0.13 |
| A23G A67G A129G G136A | 1.29 |
| A55G A64G G119A | 1.41 |
| A96U U100C A117G U127C | 2.6 |
| U12C A13G U39C A51G A67G A96G U131C | 0.45 |
| A22G A116G G123A | 0.98 |
| C17U A54G A94G | 1.18 |
| A33G U49C A69G A114G | 0.15 |
| A11U U43C A91G A135G | 0.27 |
| C16U A18U A24C A36G U57C U72C | 0.21 |
| U39C U43C U57C A86G A117G | 1.06 |
| A96G U132G U139C | 1.26 |
| U49C A59G C128U | 1.63 |
| A30G A52G U57A A118G | 0.24 |
| U2A A51U A52G U57C | 1.65 |
| U57C A63G A126C | 1.14 |
| A11G A13G A55G A95G U97C | 0.67 |
| U38C A66G A68G A110G | 0.12 |
| A63G A66G A126G | 0.6 |

| Variant | self-cleavage |
| --- | --- |
| U72A A82G A89U A117G | 0.18 |
| U43A A56G A62G G138A | 1.05 |
| A59G U72C A82G U122C U127A | 0.18 |
| A67G U70C A118C | 0.55 |
| A23G U72A U87C | 0.16 |
| A60G G73A A86G | 0.11 |
| U39C G50U A68G | 1.4 |
| A66U A117G U127A | 1.46 |
| U9C A47G A64G A69G A116G | 0.53 |
| A52G A68G G73A U120C | 0.15 |
| A23G U49C U70A A86G U108C A114G U124C | 0.01 |
| G15A A55G A67G G75U | 0.12 |
| A11U A30C U49C | 0.99 |
| A33G C35U A56G A59U A63G | 0.64 |
| U43C A54G U120A | 2.02 |
| A91G A96G A110U | 0.94 |
| U9C A33U A51U U100C | 2.08 |
| U37C A78C U108C | 0.01 |
| A18G A63U A126G | 1.1 |
| A5G A18G A33U | 0.61 |
| A33G A36G U49C A59G U131C | 0.6 |
| A33G A62U A86U U102C A111G | 0.01 |
| A51G A67G A111U | 0.22 |

Reference: the RNAGym collection of RNA variant scans (doi:10.7554/elife.90254)
